# From the supplement of paper PMC4466236
# Whole data set: some 33,000 sequences, median “E-score (dimensionless, -0.5 to 0.5)” near -0.058, cut for the highest 2% near 0.35. Some of the results follow.
# Test system: MvaT
# Assay: PBM 8-mer E-score (mean of HK and ME arrays) (E-score (dimensionless, -0.5 to 0.5)); higher = stronger relative binding preference; most listed sequences are background and not binding sites
# Method in brief: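 Full-length P. aeruginosa MvaT, with glutathione S-transferase fused to its N-terminus (cloned into pTH6838 by isothermal assembly), was tested by protein binding microarray using a previously described protocol. Two universal double-stranded 60-mer arrays (ME and HK) were used, each with a constant 25-mer primer region and a variable 35-mer region covering all 8-mers. The rank-based 8-mer E-score (-0.5 to 0.5) is the mean of the two arrays, parsed with a custom Python script.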
row,Sequence,PBM 8-mer E-score
1,CGGTCGAA,-0.142
2,GCATTAGC,-0.0717
3,CAGTCTGA,-0.00904
4,GGACCTCC,-0.299
5,ATTCTCCC,-0.0642
6,GAGAAATA,0.334
7,AATAAGGC,0.301
8,ATCCAGAA,0.0751
9,GGGTACCA,-0.266
10,ATCGCCTA,-0.119
11,ACAGAGTA,0.045
12,ATTAAGAA,0.282
13,CGGATTGC,-0.109
14,CACTTCAC,0.154
15,AGCGCAAC,0.076
16,TCAAACAA,0.175
17,ATGTTCTG,0.0527
18,CCATTCCG,-0.17
19,AAGTCAAG,-0.0341
20,CTTTGAAC,0.0886
21,ACAAGGCC,-0.125
22,AGCTGGAT,-0.0794

row,Sequence,PBM 8-mer E-score
1,CTTATACA,0.229
2,CTGATTTA,0.228
3,CTCAAATA,0.251
4,GGTAAGAC,0.00204
5,GAGTGTAC,-0.0425
6,GTAGCACA,0.0725
7,ACCAATCC,-0.00343
8,AAACTGGT,-0.00279
9,CCTTGAAC,-0.19
10,GACACTGA,-0.19
11,GGGGTTAA,0.068
12,CGGACGGA,-0.207
13,AGAGACAT,0.0513
14,AGTGACGA,-0.182
15,AGAGTTTA,0.188
16,CACGTCCG,-0.232
17,GATCATCC,-0.141
18,ACAATTAG,0.315
19,CCCGCACC,-0.236
20,AACCGGAT,0.0184
21,ATGTTCCG,0.0172
22,ATCACGCG,-0.0746

row,Sequence,PBM 8-mer E-score
1,AAGGGCCC,-0.316
2,AAAAGGTG,-0.12
3,ATACTAGG,0.104
4,CCCAATCG,-0.244
5,ACCAGCGT,-0.258
6,CACAAGCA,0.0126
7,GGGCAACA,0.076
8,GATGATAA,0.132
9,ATTCAAGG,-0.0546
10,AACTGAGA,-0.0526
11,CCCCCGAG,-0.207
12,AGGCCCGG,-0.282
13,AGAAGTTA,0.279
14,AGCGTACA,-0.0425
15,ATCATGGG,-0.198
16,ACTGCGTC,-0.216
17,ATCGTCGG,-0.078
18,ACTCGTTC,-0.131
19,CTTGCGAA,0.077
20,ACGGAAAT,0.193
21,GAACGCAA,-0.0427
22,ACCCAGGT,-0.117

row,Sequence,PBM 8-mer E-score
1,AGGTTAGG,-0.145
2,AACAAAAA,0.239
3,TAGCACCA,-0.207
4,GCGAGTCA,-0.112
5,CGCAACTC,0.0568
6,CAAGGCTA,-0.232
7,ACATCCTA,-0.0176
8,CTCGCGCC,-0.261
9,AGCGACTA,-0.106
10,AATGCGTA,0.118
11,GTGCGTGA,-0.0451
12,ACTCTTTA,0.22
13,CATGCAAC,0.143
14,AAAAGACC,-0.0443
15,CCAGCGAC,-0.0525
16,CTAATAAC,0.326
17,AGTATAGG,0.0335
18,CTTGCATC,-0.0339
19,ATGCCGCC,-0.131
20,AAACCATC,0.0503
